The list shows a part of the results.
B1: chr10:57943292:57943293:+_ENSMUSG00000003226_ENSMUST00000003310|mus_hu|motif|central (ssRNA)
RNA: GGGAGUUCUACAGUCCGACGAUCCAAAGACCCAGUGGCUGAACUGUUGCCGAAUGCAAAUGGUUUUGAUUUUUCACGGCGGAAAAUGCUUUUAACAGACUCUGAACCAAAUACAAACUUUGGAGGAGAAACCACUGCUUUUGGCAACAGAGGAUUGAGCAUCA
B2: chr8:100899844:100899845:-_ENSG00000164919_ENST00000517682|hu_hu|FALSE|FALSE (ssRNA)
RNA: GGGAGUUCUACAGUCCGACGAUCUUGAUCAGCCACACGAAACUUAUACAAAGCUGCAACCCCCAGGGAUAGCACGAAUGCUACAGCCAUAUGAUUUCGCAGACGCCUGGCCAGAAGGCCACGCAUCCGAGGUUUUGGCAAAACCAACAGAGGAUUGAGCAUCA
B3: chr14:66974463:66974464:+_ENSMUSG00000022044_ENSMUST00000074523|mus_hu|mus_mus_mus_hu_False|1_78 (ssRNA)
RNA: GGGAGUUCUACAGUCCGACGAUCUUGUAGGACGACUUAUUCAGGGGAUCGGCCAGGAAGCAAGAGCAGAACAAGGACACCAGCGGGAGCUCCUUCAUCUUCUCUUUGUAGGCAGCAAGGGUCAUGUUUCUGGGAUCCUGGUGGCAACAGAGGAUUGAGCAUCA
B4: chr5:143131892:143131893:+_ENSMUSG00000029578_ENSMUST00000036872|mus_mus|FALSE|FALSE (ssRNA)
RNA: GGGAGUUCUACAGUCCGACGAUCCAGGAUAGUGUUGGAGUAGCUGUAGUUGCAUAUCUCAGUUCCCUUCUUAAAAUGGCAAACCUUCAGCUUCCUGGGAGCUUUGAGGCUGACAAUGGCCACCAAGCUGCUUGAGAACAAUCUCAACAGAGGAUUGAGCAUCA
B5: chr14:76904568:76904569:+_ENSMUSG00000022010_ENSMUST00000022587|mus_mus|FALSE|FALSE (ssRNA)
RNA: GGGAGUUCUACAGUCCGACGAUCGUUUUCGGUUCCCAGCAAAGACGACAAGAAAGAAAUGGAAAAAUGUCUCAGUUGGUAAACUCCUAGAUCCAUCGCCACUGGUCUACACCAUUGGGAUUUCAUGCAAUUGCAGCCAAAUUACAACAGAGGAUUGAGCAUCA
B6: chr14:63765801:63765802:-_ENSMUSG00000021273_ENSMUST00000054963|mus_mus|FALSE|FALSE (ssRNA)
RNA: GGGAGUUCUACAGUCCGACGAUCCUGCUUGGUUUUGCUUGAUGAUGGGUCUGAGUUGGGGAUCCGGUGAUAAAUCUCUUCUAUGUACUGGUAUAUGAUAGCUUUGACGGCAGGCAUGUUGGUGGCAUCCAUCAUGAGGGUGACCAACAGAGGAUUGAGCAUCA

molecular target: T1, UNK ZnF1-3 (human, UniProt Q9C0B0 31-174); assay: nsRBNS (natural sequence RNA bind-n-seq); RBNS binding buffer (assumed for nsRBNS): 25 mM Tris pH 7.5, 150 mM KCl, 3 mM MgCl2, 0.01% Triton X-100, 500 ug/ml BSA, 20 U/ml SUPERase-In, 4 C; UNK is unkempt and MSI1 is Musashi-1; names of the RNAs are library labels; protein concentration not given here; high values mean tight binding
T1 sequence: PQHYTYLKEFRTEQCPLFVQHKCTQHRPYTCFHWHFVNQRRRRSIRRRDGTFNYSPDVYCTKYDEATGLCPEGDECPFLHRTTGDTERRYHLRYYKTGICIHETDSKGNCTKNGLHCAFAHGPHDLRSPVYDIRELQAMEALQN

Binder | binding signal
B1 | 1.11 enrichment R
B2 | 1.52 enrichment R
B3 | 2.02 enrichment R
B4 | 1.07 enrichment R
B5 | 1.26 enrichment R
B6 | 1.4 enrichment R
